Reference: the supplement of paper PMC10126150
Sequences with one replicate were seen in a single cluster, so their values are uncertain.
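Also: ATP exposure 15 min at 22 °C before imaging.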

What follows are sequences tested on ATP (assay: switch fluorescence ratio, 500 uM ATP over buffer (Cy3 cluster intensity, sum of 5 cycles each) (fold (ratio)); higher = stronger signal-on switching upon ATP binding; sequences stand for … in TCGTCGGCAGCGTCAGATGTGTATAAGAGACAGTTTTTTTTTTTTTTTTTTTTTTTTT…TC). Settings: aptamer strand: ATP DNA aptamer (quencher-CACCTGGGGGAGTATTGCGGAGGAAGG + anchor), 100 nM annealed; ATP concentration: 500 uM; one replicate.
Method in brief: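 Five buffer/ATP imaging cycles were run on Cy3-labelled switching-strand clusters on a modified Illumina MiSeq flow-cell, with NaOH stripping and re-annealing between cycles. In each cycle, clusters annealed to 100 nM quencher-labelled ATP aptamer were imaged in selection buffer, then after 15 min with 500 uM ATP at 22 °C. Per cluster, the fluorescence ratio is summed target-cycle over summed buffer-cycle Cy3 intensity, averaged per switch-domain sequence. Only clusters within 100-1000 RFU were kept.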
CCAACCATTT was tested, and the switch fluorescence ratio was 0.978.
CCAACCGGTA showed a switch fluorescence ratio of 1.04.
CCAACGGAGG showed a switch fluorescence ratio of 1.01.
In the case of CCAACGTAAG, the switch fluorescence ratio is reported as 1.15.
Sequence CCAAGAGTCT has a switch fluorescence ratio of 1.
CCAAGCGCTA was tested, and the switch fluorescence ratio was 1.38.
Sequence CCAAGCTGCG has a switch fluorescence ratio of 1.03.
Work on CCAAGCTTAT yielded a switch fluorescence ratio of 1.8.
Work on CCAAGGCCGT yielded a switch fluorescence ratio of 1.02.
For CCAAGGGTCC, the switch fluorescence ratio was 1.02.
With CCAAGGTGCC the switch fluorescence ratio was 1.71.
In the case of CCAAGTCAGT, the switch fluorescence ratio is reported as 1.07.
In the case of CCAAGTCCCT, the switch fluorescence ratio is reported as 0.988.
Work on CCAAGTTAAA yielded a switch fluorescence ratio of 1.01.
For CCAATATATC, the switch fluorescence ratio was 1.31.
With CCAATATGTG the switch fluorescence ratio was 1.01.
Sequence CCAATCAACA has a switch fluorescence ratio of 1.04.
Sequence CCAATCAGGA has a switch fluorescence ratio of 0.979.
Work on CCAATGATCG yielded a switch fluorescence ratio of 0.998.
With CCAATGGGTA the switch fluorescence ratio was 1.03.
CCAATGGTGC gave a switch fluorescence ratio of 1.58.
CCAATGTTG was tested, and the switch fluorescence ratio was 1.01.
Sequence CCACAACGGG has a switch fluorescence ratio of 1.06.
For CCACACGGGC, the switch fluorescence ratio was 1.13.
Sequence CCACAGCTAA has a switch fluorescence ratio of 4.73.
Sequence CCACCAACCC has a switch fluorescence ratio of 1.16.
For CCACCCGGAT, the switch fluorescence ratio was 1.13.
CCACCGGTTC showed a switch fluorescence ratio of 1.41.
For CCACCTATGA, the switch fluorescence ratio was 1.09.
For CCACGAGATG, the switch fluorescence ratio was 1.1.
Work on CCACGCACGG yielded a switch fluorescence ratio of 1.87.
For CCACGCCCAG, the switch fluorescence ratio was 1.21.
CCACGGATCA showed a switch fluorescence ratio of 0.971.
CCACGGATCT was tested, and the switch fluorescence ratio was 1.
With CCACGGTGCT the switch fluorescence ratio was 2.15.
For CCACTAGCGG, the switch fluorescence ratio was 1.08.
For CCACTATCAC, the switch fluorescence ratio was 1.38.
CCACTTCGGT showed a switch fluorescence ratio of 0.999.
Work on CCAGAAAAAG yielded a switch fluorescence ratio of 1.01.
With CCAGAAACGA the switch fluorescence ratio was 1.05.
For CCAGACAGGA, the switch fluorescence ratio was 0.986.
CCAGACCCTA was tested, and the switch fluorescence ratio was 1.06.
With CCAGCAGGA the switch fluorescence ratio was 1.23.
With CCAGCAGGAA the switch fluorescence ratio was 0.994.
In the case of CCAGCCGAGC, the switch fluorescence ratio is reported as 1.1.
CCAGCTGATC gave a switch fluorescence ratio of 1.37.
With CCAGCTTGTC the switch fluorescence ratio was 1.11.
Sequence CCAGGACTTT has a switch fluorescence ratio of 1.02.
CCAGGCCTGG gave a switch fluorescence ratio of 0.961.
For CCAGGCTACG, the switch fluorescence ratio was 1.05.
CCAGGCTTTG gave a switch fluorescence ratio of 0.937.
For CCAGGGAAGT, the switch fluorescence ratio was 1.01.
In the case of CCAGGGCAAT, the switch fluorescence ratio is reported as 6.29.
In the case of CCAGGGGATA, the switch fluorescence ratio is reported as 1.04.
In the case of CCAGGGGATG, the switch fluorescence ratio is reported as 1.06.
With CCAGGGGTTA the switch fluorescence ratio was 1.48.
CCAGGGTGG showed a switch fluorescence ratio of 1.05.
CCAGGTACTA showed a switch fluorescence ratio of 1.06.
CCAGGTTAGA was tested, and the switch fluorescence ratio was 1.09.
Work on CCAGGTTGGG yielded a switch fluorescence ratio of 1.09.
Work on CCAGTAAAA yielded a switch fluorescence ratio of 1.01.
With CCAGTCCGTG the switch fluorescence ratio was 0.999.
CCAGTGCTAG was tested, and the switch fluorescence ratio was 1.01.
For CCAGTGGGGT, the switch fluorescence ratio was 1.01.
Sequence CCAGTGTGG has a switch fluorescence ratio of 1.07.
With CCAGTTAATA the switch fluorescence ratio was 1.03.
CCAGTTAGTT was tested, and the switch fluorescence ratio was 1.06.
CCAGTTCACC showed a switch fluorescence ratio of 1.05.
With CCATAAGATG the switch fluorescence ratio was 0.998.
Work on CCATACTGGG yielded a switch fluorescence ratio of 1.04.
Sequence CCATAGCGGA has a switch fluorescence ratio of 2.72.
CCATAGTCAG showed a switch fluorescence ratio of 1.23.
CCATATACAC gave a switch fluorescence ratio of 1.34.
CCATATTTCT gave a switch fluorescence ratio of 0.967.
Work on CCATCAGGAT yielded a switch fluorescence ratio of 1.02.
With CCATCCACCC the switch fluorescence ratio was 1.08.
In the case of CCATCTCCAC, the switch fluorescence ratio is reported as 1.12.
For CCATGAAAGG, the switch fluorescence ratio was 0.98.
For CCATGACGGG, the switch fluorescence ratio was 1.01.
CCATGCGCCT was tested, and the switch fluorescence ratio was 1.09.
CCATGCGTAC was tested, and the switch fluorescence ratio was 4.02.
In the case of CCATGCTC, the switch fluorescence ratio is reported as 1.14.
With CCATGGGATT the switch fluorescence ratio was 0.979.
Work on CCATGGTGGG yielded a switch fluorescence ratio of 1.02.
Sequence CCATGTCCCG has a switch fluorescence ratio of 0.972.
Sequence CCATGTGGCG has a switch fluorescence ratio of 0.987.
In the case of CCATTACAGC, the switch fluorescence ratio is reported as 0.995.
CCATTACT was tested, and the switch fluorescence ratio was 1.04.
CCATTGGACA was tested, and the switch fluorescence ratio was 0.995.
For CCATTTATGC, the switch fluorescence ratio was 1.03.
CCCAAAAGGA was tested, and the switch fluorescence ratio was 1.26.
For CCCAAAATCG, the switch fluorescence ratio was 0.992.
CCCAACATAG gave a switch fluorescence ratio of 1.03.
CCCAATCACT was tested, and the switch fluorescence ratio was 1.8.
Work on CCCAATCGTC yielded a switch fluorescence ratio of 1.18.
In the case of CCCAATTGGC, the switch fluorescence ratio is reported as 1.06.
Sequence CCCAATTGGT has a switch fluorescence ratio of 1.
Sequence CCCACAAACT has a switch fluorescence ratio of 1.31.
CCCACCAGTA was tested, and the switch fluorescence ratio was 1.08.
Work on CCCACGCTCC yielded a switch fluorescence ratio of 3.18.
CCCACGTTCG showed a switch fluorescence ratio of 1.
CCCACTAAG was tested, and the switch fluorescence ratio was 1.04.
CCCAGACGGA gave a switch fluorescence ratio of 0.987.
CCCAGCGAGC was tested, and the switch fluorescence ratio was 1.13.
Work on CCCAGGACTC yielded a switch fluorescence ratio of 1.95.
In the case of CCCAGGGAGG, the switch fluorescence ratio is reported as 1.19.
CCCAGGGGCG was tested, and the switch fluorescence ratio was 1.43.
Sequence CCCAGTAAGG has a switch fluorescence ratio of 1.01.
In the case of CCCATATAAC, the switch fluorescence ratio is reported as 1.26.
In the case of CCCATATCGG, the switch fluorescence ratio is reported as 1.02.
For CCCATCCGCT, the switch fluorescence ratio was 3.23.
In the case of CCCATGTGGT, the switch fluorescence ratio is reported as 1.08.
In the case of CCCCAGCACG, the switch fluorescence ratio is reported as 1.8.
CCCCAGCTCG showed a switch fluorescence ratio of 1.06.
CCCCATAGGC gave a switch fluorescence ratio of 1.15.
Work on CCCCATATGT yielded a switch fluorescence ratio of 1.02.
For CCCCCGGTCA, the switch fluorescence ratio was 1.26.
CCCCCTTATT gave a switch fluorescence ratio of 0.961.
CCCCCTTGAC was tested, and the switch fluorescence ratio was 1.49.
Work on CCCCGAGCCC yielded a switch fluorescence ratio of 1.33.
CCCCGATATA gave a switch fluorescence ratio of 1.6.
CCCCGCGTTG gave a switch fluorescence ratio of 1.13.
In the case of CCCCGGCGT, the switch fluorescence ratio is reported as 1.
For CCCCGTCGTA, the switch fluorescence ratio was 1.
CCCCGTGTAG showed a switch fluorescence ratio of 1.37.
CCCCGTTACT was tested, and the switch fluorescence ratio was 3.43.
CCCCTACACA showed a switch fluorescence ratio of 1.07.
With CCCCTGTGCG the switch fluorescence ratio was 1.29.
With CCCCTGTTAA the switch fluorescence ratio was 1.05.
For CCCCTTCAGG, the switch fluorescence ratio was 1.41.
CCCCTTGAAA was tested, and the switch fluorescence ratio was 1.01.
Sequence CCCGAAACCG has a switch fluorescence ratio of 1.2.
In the case of CCCGAAGTGA, the switch fluorescence ratio is reported as 1.52.
For CCCGAATTTT, the switch fluorescence ratio was 1.
Work on CCCGACAGCT yielded a switch fluorescence ratio of 1.6.
For CCCGAGATGA, the switch fluorescence ratio was 1.
In the case of CCCGCCTGTA, the switch fluorescence ratio is reported as 1.1.
CCCGCTCGGA gave a switch fluorescence ratio of 1.08.
CCCGCTCTTG gave a switch fluorescence ratio of 1.07.
For CCCGGAACAT, the switch fluorescence ratio was 1.11.
For CCCGGAGATG, the switch fluorescence ratio was 1.04.
CCCGGCAGAA was tested, and the switch fluorescence ratio was 1.54.
Sequence CCCGGCGGGT has a switch fluorescence ratio of 1.
With CCCGGGCGCG the switch fluorescence ratio was 1.12.
CCCGGGTCGT showed a switch fluorescence ratio of 1.18.
CCCGGTAACC gave a switch fluorescence ratio of 1.08.
For CCCGGTGACC, the switch fluorescence ratio was 1.27.
For CCCGGTTAAC, the switch fluorescence ratio was 1.13.
In the case of CCCGTCAGCA, the switch fluorescence ratio is reported as 1.23.
Work on CCCGTCTGGA yielded a switch fluorescence ratio of 0.955.
CCCGTGATGA showed a switch fluorescence ratio of 1.22.
Sequence CCCGTTAAAT has a switch fluorescence ratio of 1.08.
Work on CCCGTTGCGC yielded a switch fluorescence ratio of 1.1.
For CCCGTTTTTC, the switch fluorescence ratio was 1.02.
CCCTAAATTG showed a switch fluorescence ratio of 0.959.
With CCCTACGTGT the switch fluorescence ratio was 1.14.
In the case of CCCTCATTTA, the switch fluorescence ratio is reported as 0.978.
For CCCTCCATCT, the switch fluorescence ratio was 1.1.
With CCCTCGCCTA the switch fluorescence ratio was 1.16.
Sequence CCCTCTGGAC has a switch fluorescence ratio of 1.2.
For CCCTGATTT, the switch fluorescence ratio was 1.01.
In the case of CCCTGCAGGG, the switch fluorescence ratio is reported as 1.04.
In the case of CCCTGGGCGG, the switch fluorescence ratio is reported as 1.77.
Sequence CCCTGGGGTC has a switch fluorescence ratio of 1.1.
CCCTGTTGTT gave a switch fluorescence ratio of 0.954.
CCCTTCTCGG showed a switch fluorescence ratio of 1.05.
Work on CCCTTGCCAT yielded a switch fluorescence ratio of 1.02.
In the case of CCCTTGGGAT, the switch fluorescence ratio is reported as 1.01.
With CCCTTTTTTC the switch fluorescence ratio was 1.06.
With CCGAAGGATG the switch fluorescence ratio was 1.
CCGACAGGAG was tested, and the switch fluorescence ratio was 1.08.
CCGACCACT gave a switch fluorescence ratio of 3.17.
With CCGACTAGAT the switch fluorescence ratio was 4.8.
CCGAGCCTTA was tested, and the switch fluorescence ratio was 1.3.
With CCGAGGACGT the switch fluorescence ratio was 1.13.
With CCGAGGATCT the switch fluorescence ratio was 1.03.
CCGAGGGATA gave a switch fluorescence ratio of 2.16.
CCGAGGGCGG was tested, and the switch fluorescence ratio was 1.24.
In the case of CCGAGGTGAG, the switch fluorescence ratio is reported as 1.09.
With CCGAGTATTA the switch fluorescence ratio was 1.87.
CCGAGTATTC gave a switch fluorescence ratio of 2.07.
With CCGAGTCAGC the switch fluorescence ratio was 2.69.
For CCGAGTGGTA, the switch fluorescence ratio was 1.27.
For CCGAGTTAAA, the switch fluorescence ratio was 1.3.
For CCGAGTTCTC, the switch fluorescence ratio was 1.12.
For CCGATAACG, the switch fluorescence ratio was 1.11.
CCGATACGGA was tested, and the switch fluorescence ratio was 1.03.
CCGATCATAG was tested, and the switch fluorescence ratio was 1.88.
Sequence CCGATTAGAG has a switch fluorescence ratio of 1.05.
For CCGATTAGGG, the switch fluorescence ratio was 0.989.
CCGATTGAGA showed a switch fluorescence ratio of 1.03.
In the case of CCGATTGGGG, the switch fluorescence ratio is reported as 1.02.
For CCGATTTCTT, the switch fluorescence ratio was 0.969.
Work on CCGCACGGTT yielded a switch fluorescence ratio of 1.41.
CCGCAGCACG was tested, and the switch fluorescence ratio was 2.32.
CCGCATGCAT gave a switch fluorescence ratio of 5.14.
CCGCATTGTA was tested, and the switch fluorescence ratio was 2.72.
For CCGCGAAGAA, the switch fluorescence ratio was 3.84.
Sequence CCGCGACTGG has a switch fluorescence ratio of 2.33.
For CCGCGGCCTT, the switch fluorescence ratio was 1.17.
